The other results are listed elsewhere or left out. The full chains were built here from the parent and the listed change. Inactive controls read about 0.05.

B1: TEV protease; numbered along this chain (parent)
chain: MGESLFKGPRDYNPISSSICHLTNESDGHTTSLYGIGFGPFIITNKHLFRRNNGTLVVQSLHGVFKVKDTTTLQQHLVDGRDMIIIRMPKDFPPFPQKLKFREPQREERICLVTTNFQTKSMSSMVSDTSCTFPSGDGIFWKHWIQTKDGQCGSPLVSTRDGFIVGIHSASNFTNTNNYFTSVPKNFMELLTNQEAQQWVSGWRLNADSVLWGGHKVFMVKPEEPFQPVKEATQL

Variants of B1 are the subject of this assay. Put plainly: raw area under fraction-flipped curve 0-4 h after induction (AUC4h, not background-subtracted), DNA-recorder readout of cleavage of the substrate (dimensionless); higher = more cleavage of the substrate by the protease variant. Particulars: temperature: 34 °C; time window: 0-4 h after rhamnose induction. As to the method: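 In vivo DNA recorder in E. coli TOP10(DE3) ΔrhaA at 34 °C. Each TEVp single-site mutant (parent TEVp 0) is paired with a single-site variant of the 7-mer TEVs (canonical ENLYFQ|S). The substrate sits between flexible linkers in a Bxb1-sfGFP-TEVs-SsrA fusion, so cleavage stabilises Bxb1 and speeds flipping of a recombination array, read by NGS. The value is the raw area under the fraction-flipped curve over 0-4 h after rhamnose induction (AUC4h), with ≥20 reads per time point. It is not background-subtracted; inactive controls average about 0.047.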
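Further: Bxb1 expression induced with 0.2% (w/v) L-rhamnose at OD600 near 0.5, cultures sampled hourly, flipped fraction per protease–substrate barcode pair counted by paired-end Illumina sequencing.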

For the variant MGESLFKGPRDYNPISSSICHLTNESDGHTTSLYGIGFGPFIITNKHLFRRNNGTLVVQSLHGVFKVKDTTTLQQHLVDGRDMIIIRMPKDFPPFPQKLKFREPQREERICLVTTNFQTKSTSSMVSDTSCTFPSGDGIFWKHWIQTKDGQCGSPLVSTRDGFIVGIHSASNFTNTNNYFTSVPKNFMELLTNQEAQQWVSGWRLNADSVLWGGHKVFMVKPEEPFQPVKEATQL [M122T], the “area with substrate ENLYFAS” value is 0.0668, the “area with substrate ENLYFCS” value was found to be 0.0892, the “area with substrate ENLYFES” value was 0.0669 and the “area with substrate ENLYFIS” value was found to be 0.0611. Moreover, the “area with substrate ENLYFLS” value came out at 0.0693, the “area with substrate ENLYFMS” value worked out at 0.0627, the “area with substrate ENLYFNS” value turned out to be 0.0654 and the “area with substrate ENLYFPS” value was 0.0607. Further, the “area with substrate ENLYFRS” value came out at 0.0519.

As for MGESLFKGPRDYNPISSSICHLTNESDGHTTSLYGIGFGPFIITNKHLFRRNNGTLVVQSLHGVFKVKDTTTLQQHLVDGRDMIIIRMPKDFPPFPQKLKFREPQREERICLVTTNRQTKSMSSMVSDTSCTFPSGDGIFWKHWIQTKDGQCGSPLVSTRDGFIVGIHSASNFTNTNNYFTSVPKNFMELLTNQEAQQWVSGWRLNADSVLWGGHKVFMVKPEEPFQPVKEATQL [F117R], the “area with substrate ENLYFAS” value worked out at 0.0553, the “area with substrate ENLYFES” value worked out at 0.0512, the “area with substrate ENLYFFS” value is 0.065 and the “area with substrate ENLYFIS” value came out at 0.049. Moreover, the “area with substrate ENLYFMS” value was 0.0703, the “area with substrate ENLYFPS” value turned out to be 0.0331 and the “area with substrate ENLYFTS” value is 0.0526.

With MGESLFKGPRDYNPISSSICHLTNESDGHTTSLYGIGFGPFIITNKHLFRRNNGTLVVQSLHGVFKVKDTTTLQQHLVDGRDMIIIRMPKDFPPFPQKLKFREPQREERIWLVTTNFQTKSMSSMVSDTSCTFPSGDGIFWKHWIQTKDGQCGSPLVSTRDGFIVGIHSASNFTNTNNYFTSVPKNFMELLTNQEAQQWVSGWRLNADSVLWGGHKVFMVKPEEPFQPVKEATQL [C111W], the “area with substrate ENLYFAS” value came to 0.0374, the “area with substrate ENLYFES” value came to 0.0585, the “area with substrate ENLYFIS” value stood at 0.0559 and the “area with substrate ENLYFNS” value is 0.0494. Further, the “area with substrate ENLYFRS” value came out at 0.0732.

Consider MGESLFKGPRDYNPISSSICHLTNESDGHTTSLYGIGFGPFIITNKHLFRRNNGTLVVQSLHGVFKVKDTTTLQQHLVDGRDMIIIRMPKDFPPFPQKLKFREPQREERSCLVTTNFQTKSMSSMVSDTSCTFPSGDGIFWKHWIQTKDGQCGSPLVSTRDGFIVGIHSASNFTNTNNYFTSVPKNFMELLTNQEAQQWVSGWRLNADSVLWGGHKVFMVKPEEPFQPVKEATQL [I110S], for which the “area with substrate ENLYFAS” value was 0.075, the “area with substrate ENLYFDS” value was 0.0574, the “area with substrate ENLYFES” value was found to be 0.0582 and the “area with substrate ENLYFFS” value was found to be 0.0795. Moreover, the “area with substrate ENLYFIS” value amounted to 0.0484, the “area with substrate ENLYFKS” value amounted to 0.037, the “area with substrate ENLYFLS” value was 0.0415 and the “area with substrate ENLYFMS” value was determined as 0.0516. Also, the “area with substrate ENLYFNS” value came out at 0.0568, the “area with substrate ENLYFPS” value was 0.0631, the “area with substrate ENLYFRS” value turned out to be 0.0558 and the “area with substrate ENLYFTS” value is 0.0615. Besides, the “area with substrate ENLYFYS” value was 0.0457.

Consider MGESLFKGPRDYNPISSSICHLTNESDGHTTSLYGIGFGPFIITNKHLFRRNNGTLVVQSLHGVFKVKDTTTLQQHLVDGRDMIIIRMPKDFPPFPQKLKFREPQREERICLVTTNFVTKSMSSMVSDTSCTFPSGDGIFWKHWIQTKDGQCGSPLVSTRDGFIVGIHSASNFTNTNNYFTSVPKNFMELLTNQEAQQWVSGWRLNADSVLWGGHKVFMVKPEEPFQPVKEATQL [Q118V], for which the “area with substrate ENLYFAS” value amounted to 0.041, the “area with substrate ENLYFCS” value was 0.0563, the “area with substrate ENLYFFS” value turned out to be 0.0695 and the “area with substrate ENLYFIS” value worked out at 0.0577. Moreover, the “area with substrate ENLYFKS” value was determined as 0.0584, the “area with substrate ENLYFLS” value turned out to be 0.0649, the “area with substrate ENLYFMS” value is 0.0649 and the “area with substrate ENLYFPS” value came out at 0.0606. The “area with substrate ENLYFRS” value amounted to 0.0691 and the “area with substrate ENLYFSS” value amounted to 0.0497.

Turning to MGESLFKGPRDYNPISSSICHLTNESDGHTTSLYGIGFGPFIITNKHLFRRNNGTLVVQSLHGVFKVKDTTTLQQHLVDGRDMIIIRMPKDFPPFPQKLKFREPQREERICLVTTNFMTKSMSSMVSDTSCTFPSGDGIFWKHWIQTKDGQCGSPLVSTRDGFIVGIHSASNFTNTNNYFTSVPKNFMELLTNQEAQQWVSGWRLNADSVLWGGHKVFMVKPEEPFQPVKEATQL [Q118M], the “area with substrate ENLYFAS” value amounted to 0.0601, the “area with substrate ENLYFES” value stood at 0.0569, the “area with substrate ENLYFIS” value turned out to be 0.0651 and the “area with substrate ENLYFMS” value is 0.0549. In addition, the “area with substrate ENLYFNS” value turned out to be 0.104, the “area with substrate ENLYFPS” value is 0.059, the “area with substrate ENLYFRS” value turned out to be 0.0499 and the “area with substrate ENLYFTS” value is 0.06.

With MGESLFKGPRDYNPISSSICHLTNESDGHTTSLYGIGFGPFIITNKHLFRRNNGTLVVQSLHGVFKVKDTTTLQQHLVDGRDMIIIRMPKDFPPFPQKLKFREPQREERICLVATNFQTKSMSSMVSDTSCTFPSGDGIFWKHWIQTKDGQCGSPLVSTRDGFIVGIHSASNFTNTNNYFTSVPKNFMELLTNQEAQQWVSGWRLNADSVLWGGHKVFMVKPEEPFQPVKEATQL [T114A], the “area with substrate ENLYFAS” value was found to be 0.0595, the “area with substrate ENLYFDS” value was found to be 0.0588, the “area with substrate ENLYFES” value is 0.0669 and the “area with substrate ENLYFHS” value worked out at 0.0616. Moreover, the “area with substrate ENLYFIS” value stood at 0.0351, the “area with substrate ENLYFKS” value was determined as 0.0618, the “area with substrate ENLYFLS” value stood at 0.0605 and the “area with substrate ENLYFMS” value stood at 0.07. For the same variant, the “area with substrate ENLYFNS” value is 0.0592, the “area with substrate ENLYFPS” value is 0.0639, the “area with substrate ENLYFRS” value was found to be 0.0527 and the “area with substrate ENLYFTS” value is 0.0509. The “area with substrate ENLYFWS” value turned out to be 0.0777.

As to MGESLFKGPRDYNPISSSICHLTNESDGHTTSLYGIGFGPFIITNKHLFRRNNGTLVVQSLHGVFKVKDTTTLQQHLVDGRDMIIIRMPKDFPPFPQKLKFREPQREERICLVWTNFQTKSMSSMVSDTSCTFPSGDGIFWKHWIQTKDGQCGSPLVSTRDGFIVGIHSASNFTNTNNYFTSVPKNFMELLTNQEAQQWVSGWRLNADSVLWGGHKVFMVKPEEPFQPVKEATQL [T114W], the “area with substrate ENLYFAS” value amounted to 0.0547, the “area with substrate ENLYFCS” value is 0.0388, the “area with substrate ENLYFDS” value came to 0.0586 and the “area with substrate ENLYFES” value is 0.0601. The “area with substrate ENLYFFS” value came to 0.0574, the “area with substrate ENLYFIS” value stood at 0.0707, the “area with substrate ENLYFKS” value came to 0.0675 and the “area with substrate ENLYFMS” value is 0.0545. Also, the “area with substrate ENLYFSS” value was 0.106, the “area with substrate ENLYFTS” value is 0.0493, the “area with substrate ENLYFVS” value is 0.06 and the “area with substrate ENLYFWS” value was determined as 0.046.

MGESLFKGPRDYNPISSSICHLTNESDGHTTSLYGIGFGPFIITNKHLFRRNNGTLVVQSLHGVFKVKDTTTLQQHLVDGRDMIIIRMPKDFPPFPQKLKFREPQREERICLVTTNFQTKSMSSRVSDTSCTFPSGDGIFWKHWIQTKDGQCGSPLVSTRDGFIVGIHSASNFTNTNNYFTSVPKNFMELLTNQEAQQWVSGWRLNADSVLWGGHKVFMVKPEEPFQPVKEATQL [M125R]: the “area with substrate ENLYFAS” value was 0.086, the “area with substrate ENLYFCS” value was 0.0626, the “area with substrate ENLYFDS” value is 0.0491 and the “area with substrate ENLYFFS” value amounted to 0.0703. Further, the “area with substrate ENLYFHS” value was 0.0509, the “area with substrate ENLYFIS” value was determined as 0.0458, the “area with substrate ENLYFKS” value turned out to be 0.0815 and the “area with substrate ENLYFLS” value came to 0.0946. Further, the “area with substrate ENLYFMS” value amounted to 0.0529, the “area with substrate ENLYFNS” value worked out at 0.0652, the “area with substrate ENLYFPS” value turned out to be 0.0619 and the “area with substrate ENLYFRS” value came to 0.0657. In addition, the “area with substrate ENLYFSS” value was 0.0609, the “area with substrate ENLYFTS” value worked out at 0.0698, the “area with substrate ENLYFVS” value amounted to 0.0663 and the “area with substrate ENLYFWS” value came to 0.0558. Further, the “area with substrate ENLYFYS” value is 0.057.

As to MGESLFKGPRDYNPISSSICHLTNESDGHTTSLYGIGFGPFIITNKHLFRRNNGTLVVQSLHGVFKVKDTTTLQQHLVDGRDMIIIRMPKDFPPFPQKLKFREPQREERICLVTTNFQTKSMSSEVSDTSCTFPSGDGIFWKHWIQTKDGQCGSPLVSTRDGFIVGIHSASNFTNTNNYFTSVPKNFMELLTNQEAQQWVSGWRLNADSVLWGGHKVFMVKPEEPFQPVKEATQL [M125E], the “area with substrate ENLYFAS” value turned out to be 0.0485, the “area with substrate ENLYFCS” value worked out at 0.0603, the “area with substrate ENLYFES” value came to 0.0725 and the “area with substrate ENLYFFS” value stood at 0.0555. Further, the “area with substrate ENLYFGS” value was determined as 0.0488, the “area with substrate ENLYFHS” value turned out to be 0.081, the “area with substrate ENLYFIS” value turned out to be 0.0596 and the “area with substrate ENLYFLS” value worked out at 0.0612. Also, the “area with substrate ENLYFPS” value was 0.0725, the “area with substrate ENLYFSS” value came to 0.0827, the “area with substrate ENLYFWS” value is 0.0601 and the “area with substrate ENLYFYS” value was 0.0575.

For the variant MGESLFKGPRDYNPISSSICHLTNESDGHTTSLYGIGFGPFIITNKHLFRRNNGTLVVQSLHGVFKVKDTTTLQQHLVDGRDMIIIRMPKDFPPFPQKLKFREPQREERICLQTTNFQTKSMSSMVSDTSCTFPSGDGIFWKHWIQTKDGQCGSPLVSTRDGFIVGIHSASNFTNTNNYFTSVPKNFMELLTNQEAQQWVSGWRLNADSVLWGGHKVFMVKPEEPFQPVKEATQL [V113Q], the “area with substrate ENLYFAS” value amounted to 0.0518, the “area with substrate ENLYFES” value amounted to 0.0608, the “area with substrate ENLYFFS” value stood at 0.0522 and the “area with substrate ENLYFGS” value is 0.0668. Besides, the “area with substrate ENLYFIS” value amounted to 0.0619, the “area with substrate ENLYFKS” value was found to be 0.0495, the “area with substrate ENLYFLS” value was 0.066 and the “area with substrate ENLYFMS” value was 0.0613. In addition, the “area with substrate ENLYFNS” value was 0.0571, the “area with substrate ENLYFPS” value amounted to 0.0551, the “area with substrate ENLYFRS” value worked out at 0.0607 and the “area with substrate ENLYFSS” value worked out at 0.0493. The “area with substrate ENLYFTS” value turned out to be 0.0555 and the “area with substrate ENLYFVS” value came to 0.0533.

Source of the values: the supplement of paper PMC12217912.
